Experimental data from the supplement of paper PMC10126150.
Values marked as one replicate rest on one cluster of the flow cell; about a third of the high ones do not repeat.

Each sequence was assayed on ATP (assay: switch fluorescence ratio, 500 uM ATP over buffer (Cy3 cluster intensity, sum of 5 cycles each) (fold (ratio)); higher = stronger signal-on switching upon ATP binding; sequences stand for … in TCGTCGGCAGCGTCAGATGTGTATAAGAGACAGTTTTTTTTTTTTTTTTTTTTTTTTT…TC). Conditions: aptamer strand: ATP DNA aptamer (quencher-CACCTGGGGGAGTATTGCGGAGGAAGG + anchor), 100 nM annealed; ATP concentration: 500 uM; one replicate.
Method in brief: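 Imaging in selection buffer was followed by imaging after 15 min with 500 uM ATP at 22 °C, for Cy3-labelled switching-strand clusters annealed to 100 nM quencher-labelled ATP aptamer on a modified Illumina MiSeq flow-cell. Five of these buffer/ATP cycles ran, separated by NaOH stripping and re-annealing. The fluorescence ratio per cluster is summed target-cycle over summed buffer-cycle Cy3 intensity, averaged per switch-domain sequence; clusters outside 100-1000 RFU were removed.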
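Note: ATP exposure 15 min at 22 °C before imaging.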

Sequence | switch fluorescence ratio
TATCCGAGAG | 1.07
TATCCGCTCC | 2.39
TATCCTTGGG | 0.984
TATCGAGAGC | 0.967
TATCGAGGG | 1
TATCGCCAGC | 1.07
TATCGCCCAA | 1.02
TATCGCGGC | 1.77
TATCGGGTAC | 1.15
TATCGTCCCC | 1.02
TATCGTTCAA | 1.06
TATCGTTGCC | 0.989
TATCTATAGA | 1.01
TATCTATATG | 1.03
TATCTCGTCG | 1.02
TATCTGTTAC | 1.09
TATCTTAAT | 0.994
TATGAAACAT | 1
TATGAAGCA | 1.01
TATGACCCGA | 1.01
TATGACTGGT | 1
TATGAGTAGA | 1.02
TATGATAGAA | 1.01
TATGCAAGGG | 2.72
TATGCACATG | 1.02
TATGCACGTG | 1.02

Sequence | switch fluorescence ratio
TATGCCCATT | 1.01
TATGCCGATT | 0.995
TATGCGACG | 1.05
TATGCGATTA | 1.01
TATGCGCCTG | 0.933
TATGCGCGTT | 0.964
TATGCGGCCC | 0.995
TATGCGGGCT | 0.989
TATGCGTAGG | 1
TATGCTACGA | 1.04
TATGCTGCCC | 1.01
TATGGAAGCG | 0.999
TATGGATTAC | 1.01
TATGGATTC | 0.967
TATGGGGCCT | 1.05
TATGGTCCGA | 0.983
TATGGTCGAA | 0.974
TATGTACACG | 1.08
TATGTACCAC | 1.05
TATGTAGTCA | 1.04
TATGTATTGG | 1.01
TATGTCCTTT | 0.955
TATGTCGATT | 0.977
TATGTCTTCT | 0.979
TATGTGAGCG | 0.99
TATGTGGTCT | 1.01

Sequence | switch fluorescence ratio
TATGTGTATT | 0.943
TATGTGTTCG | 0.994
TATGTTAGT | 0.966
TATGTTGCCG | 0.984
TATTAAACAT | 1.05
TATTAAGAGA | 0.974
TATTACGGG | 1.01
TATTAGAGCT | 1.01
TATTAGGTAG | 1.01
TATTAGTGAG | 0.993
TATTATCGGG | 0.948
TATTATGACG | 0.994
TATTATGTTG | 0.998
TATTATTGAG | 0.961
TATTCACCCG | 1.05
TATTCACGGC | 1.05
TATTCAGTTT | 1
TATTCATGGC | 0.97
TATTCATTA | 1.05
TATTCCTTTG | 1.03
TATTCGACCT | 1.18
TATTCGCACC | 1.26
TATTCGCGA | 1.16
TATTCGTCCG | 1.09
TATTCTGTTG | 0.964
TATTCTTATT | 0.998

Sequence | switch fluorescence ratio
TATTCTTGGC | 1.03
TATTCTTGGT | 1
TATTGAAACG | 1.01
TATTGATAGG | 1.05
TATTGCAGCT | 0.977
TATTGCCTAA | 0.961
TATTGTATA | 0.958
TATTGTGCGC | 0.984
TATTGTGTAG | 1.01
TATTTACGCA | 1.13
TATTTAGC | 0.961
TATTTATAA | 0.982
TATTTCCAAG | 0.976
TATTTCGCTT | 1.06
TATTTGAATA | 0.964
TATTTGAGCC | 1
TATTTGCTCT | 0.961
TATTTGTCGA | 1.04
TCAAAAATAA | 1.01
TCAAAAGCTT | 1.04
TCAAATGAA | 0.992
TCAAATGGG | 0.918
TCAACACGGT | 1.02
TCAACACTG | 1.01
TCAACATTAA | 0.976
TCAACCAAAT | 0.997

Sequence | switch fluorescence ratio
TCAACCACAT | 1.07
TCAACGGGTT | 1.03
TCAACTATCG | 1.05
TCAACTCTGG | 1.04
TCAACTTATT | 0.991
TCAAGAGTCC | 1
TCAAGAGTGC | 1.02
TCAAGATCCT | 1.15
TCAAGATGTC | 0.945
TCAAGGAGGC | 0.891
TCAAGTTCAC | 0.984
TCAATAGTTG | 0.978
TCAATATCGC | 1.02
TCAATATTTA | 0.982
TCAATCAATG | 0.982
TCAATCCGAG | 1.06
TCAATGCAAG | 1
TCAATGCGGT | 2.64
TCAATGCGTA | 1.29
TCAATGGACG | 1.03
TCAATGGGTT | 0.983
TCAATTCATC | 0.973
TCAATTGGGC | 0.939
TCAATTTAGC | 0.988
TCAATTTTTC | 1.01
TCACAAAGGC | 1.14

Sequence | switch fluorescence ratio
TCACAAGAGA | 1.01
TCACAATCAT | 1.04
TCACAATGGG | 1.01
TCACACAGAC | 1.19
TCACAGGCCT | 1.01
TCACAGGGAT | 1.03
TCACAGTGTA | 1.01
TCACAGTTAT | 1.03
TCACCATCTA | 1.02
TCACCCGATT | 1.02
TCACCTGCCA | 1.07
TCACCTTCTT | 1.23
TCACGCCAAT | 1.55
TCACGGAGCT | 1.49
TCACGGGCCT | 0.999
TCACGGGGTA | 0.966
TCACGTATGC | 1.01
TCACGTGAGT | 1.03
TCACTAATAA | 1.02
TCACTAGTTT | 0.99
TCACTCAAAG | 1.03
TCACTGGAGA | 1
TCACTGGGCC | 1.05
TCACTGTGGA | 0.991
TCACTTCGAT | 0.982
TCACTTGCA | 1.03

Sequence | switch fluorescence ratio
TCACTTTAGG | 0.992
TCAGAACCAC | 1.05
TCAGAACTCG | 0.956
TCAGACCCTG | 0.95
TCAGACTAAA | 1.04
TCAGATATGG | 0.987
TCAGATATGT | 1.04
TCAGATGCGG | 1.05
TCAGATTATT | 0.995
TCAGCCTGCG | 0.953
TCAGCGAGTG | 1.01
TCAGCTCGGC | 0.994
TCAGCTTGTA | 1
TCAGGAATAG | 1.53
TCAGGAATTG | 0.992
TCAGGACGAG | 0.966
TCAGGCTTC | 1.04
TCAGGGGCT | 1.06
TCAGGTCTGG | 1.02
TCAGGTTATC | 1.03
TCAGTCTTAC | 0.99
TCAGTCTTC | 1
TCAGTTCTTT | 0.987
TCAGTTTATC | 0.99
TCATAAAG | 1.02
TCATAAGGG | 0.963

Sequence | switch fluorescence ratio
TCATACATCT | 1.05
TCATACCCGA | 1.02
TCATACCTG | 1.03
TCATAGGAAT | 1.02
TCATAGGCTT | 1.03
TCATAGGGGG | 1.04
TCATATTAGC | 0.914
TCATATTCAT | 0.925
TCATCCAGAA | 1.08
TCATCGAACA | 1.02
TCATCGCCGT | 1.06
TCATCTGAGC | 0.992
TCATGAGGAA | 1
TCATGGAACT | 1.02
TCATGGACGC | 1.02
TCATGGCAGA | 1.01
TCATGGGCAG | 1.01
TCATGTTACA | 1.04
TCATTACACG | 1.01
